Assay results published in US20230348447A1, “OXAZOLIDINONE COMPOUNDS, LIPOSOME COMPOSITIONS COMPRISING OXAZOLIDINONE COMPOUNDS AND METHOD OF USE THEREOF” (priority 2020, published 2023).

Tested on: M. Tuberculosis Erdman or H37Rv vs VERO or HepG2 cells
Experiment: Selectivity Index (mammalian cell IC50 / bacterial MIC)
Design: species or system Mycobacterium tuberculosis

Row | SMILES | Selectivity Index (SI) H37Rv /HepG2 | Selectivity Index (SI) H37Rv /VERO
1 | CN(C)CCCn1nnc(-c2ccc(-c3ccc(N4C[C@H](CO)OC4=O)cc3F)cn2)n1 [AKG-25] | 9.4 | 182.0
2 | CCN(CC)CCNC[C@H]1CN(c2ccc(-c3ccc(-c4nnn(C)n4)nc3)c(F)c2)C(=O)O1 [AKG-9] | 3.5 | <17.4
3 | CCN(CC)CCCNc1ccc(-c2ccc(N3C[C@H](CO)OC3=O)cc2F)cn1 [AKG-15] | <4.5 | <19.5
4 | CN(C)CCNc1ccc(-c2ccc(N3C[C@H](CO)OC3=O)cc2F)cn1 [AKG-12] | 16.9 | 22.3
5 | CN(C)CCCn1nnc(-c2ccc(-c3ccc(N4C[C@H](CN)OC4=O)cc3F)cn2)n1 [AKG-30] | 151.2 | 884.0
6 | Cl.Cn1nnc(-c2ccc(-c3ccc(N4C[C@H](CN)OC4=O)cc3F)cn2)n1 [AKG-3] | 353.3 | 296.7
7 | CCN(CC)CCn1nnc(-c2ccc(-c3ccc(N4C[C@H](CNC(C)=O)OC4=O)cc3F)cn2)n1 [AKG-39] | 140.0 | 402.0
8 | CCN(CC)CCCn1nnc(-c2ccc(-c3ccc(N4C[C@H](CO)OC4=O)cc3F)cn2)n1 [AKG-26] | 4.5 | 64.3
9 | CN(C)CCn1nnnc1-c1ccc(-c2ccc(N3C[C@H](CO)OC3=O)cc2F)cn1 [AKG-21] | <19.5 | 
10 | CCN(CC)CCCn1nnc(-c2ccc(-c3ccc(N4C[C@H](CNC(C)=O)OC4=O)cc3F)cn2)n1 [AKG-40] | 226.0 | >500.0
11 | Cl.NCCn1nnc(-c2ccc(-c3ccc(N4C[C@H](CO)OC4=O)cc3F)cn2)n1 [AKG-23] | 29.2 | >1000
12 | CN(C)CCC1CCN(C[C@H]2CN(c3ccc(-c4ccc(-c5nnn(C)n5)nc4)c(F)c3)C(=O)O2)CC1 [AKG-6] | 1.9 | <3.4
13 | CN(C)CCn1nnc(-c2ccc(-c3ccc(N4C[C@H](CN)OC4=O)cc3F)cn2)n1.Cl [AKG-28] | 893.3 | 5533.3
14 | CCN(CC)C[C@H]1CN(c2ccc(-c3ccc(-c4nnn(C)n4)nc3)c(F)c2)C(=O)O1 [AKG-2] | 3.1 | <8.5
15 | CCN(CC)CCOC[C@H]1CN(c2ccc(-c3ccc(-c4nnn(C)n4)nc3)c(F)c2)C(=O)O1 [AKG-7] | 1.4 | <13.0
16 | CCN(CC)CCC(=O)OC[C@H]1CN(c2ccc(-c3ccc(-c4nnn(C)n4)nc3)c(F)c2)C(=O)O1 [AKG-20] | 30.2 | >500
17 | CCN(CC)CCNc1ccc(-c2ccc(N3C[C@H](CO)OC3=O)cc2F)cn1 [AKG-13] | <4.0 | <11.7
18 | Cl.Cn1nnc(-c2ccc(-c3ccc(N4C[C@H](CNC(=O)CCN)OC4=O)cc3F)cn2)n1 [AKG-19] | 5.3 | >31.3
19 | Cl.Cl.NCCn1nnc(-c2ccc(-c3ccc(N4C[C@H](CN)OC4=O)cc3F)cn2)n1 [AKG-29] | 595.2 | 879.2
20 | Cl.NCCn1nnnc1-c1ccc(-c2ccc(N3C[C@H](CO)OC3=O)cc2F)cn1 [AKG-22] | 34.4 | 115.4
21 | CN(C)C[C@H]1CN(c2ccc(-c3ccc(-c4nnn(C)n4)nc3)c(F)c2)C(=O)O1 [AKG-1] | 14.5 | <14.1
22 | CCN(CC)CCn1nnc(-c2ccc(-c3ccc(N4C[C@H](CO)OC4=O)cc3F)cn2)n1 [AKG-24] | 11.4 | 31.3
23 | Cl.NCCCn1nnc(-c2ccc(-c3ccc(N4C[C@H](CO)OC4=O)cc3F)cn2)n1 [AKG-27] | 18.0 | 11.2
24 | CN(C)CCC1CCN(c2ccc(-c3ccc(N4C[C@H](CO)OC4=O)cc3F)cn2)CC1 [AKG-11] | 10.7 | 8.0
25 | CN(C)CCCC(=O)OC[C@H]1CN(c2ccc(-c3ccc(-c4nnn(C)n4)nc3)c(F)c2)C(=O)O1 [AKG-5] | 30.8 | 32.5
